The supplement of paper PMC12067230
The data scatter; read single values as rough.

test: amyloid nucleation score relative to library mode (yeast Sup35 reporter selection) (log enrichment difference); higher = more amyloid nucleation; sequences are the first 22 residues of the Bri2 peptide extended by up to 12 random residues; conditions: random library (experiment): 1;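 active = nucleation score significantly above 0 at FDR 0.05; inactive = not significantly above 0 or absent from output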
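Further: [psi-pin-] Saccharomyces cerevisiae expressing SupN fusions, induced by 100 µM Cu2SO4, selected 7 d at 30 °C without adenine and uracil, scored by deep sequencing of output versus input.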

Sequence	amyloid nucleation score
EASNCFAIRHFENKFAVETLICDR	-0.401
EASNCFAIRHFENKFAVETLICRLIWRNKIGWWS	-0.029
EASNCFAIRHFENKFAVETLICRMRIHHVKAPAP	1.39
EASNCFAIRHFENKFAVETLICHCVCQYIVCALR	inactive
EASNCFAIRHFENKFAVETLICAGTTQELNRVVR	inactive
EASNCFAIRHFENKFAVETLICLVWYVACSRGYV	inactive
EASNCFAIRHFENKFAVETLICMYSVWSRAGRCV	inactive
EASNCFAIRHFENKFAVETLICERPSRQRRGARW	inactive
EASNCFAIRHFENKFAVETLICLRPCGCVRGCVR	inactive
EASNCFAIRHFENKFAVETLICVVSHNNFEVVNV	7.29
EASNCFAIRHFENKFAVETLICPPLLSKEFLTPG	inactive
EASNCFAIRHFENKFAVETLICLCCAVCRIGRGE	3.81
EASNCFAIRHFENKFAVETLICDWHQGSVGVVTR	inactive
EASNCFAIRHFENKFAVETLICKFAKGGNPPAAG	inactive
EASNCFAIRHFENKFAVETLICRGNSATFVSWST	2.85
EASNCFAIRHFENKFAVETLICWASTECLLINAA	inactive
EASNCFAIRHFENKFAVETLICTMSMPLIRFFVV	0.547
EASNCFAIRHFENKFAVETLICMYGMSHWRWNAG	1.69
EASNCFAIRHFENKFAVETLICGIPRGVIDSKFL	inactive
EASNCFAIRHFENKFAVETLICETCTVRKLAMGV	inactive
EASNCFAIRHFENKFAVETLICHGAW	inactive
EASNCFAIRHFENKFAVETLICRAAVRVDPEYEA	inactive
EASNCFAIRHFENKFAVETLICAEERMVVTRLWP	inactive
EASNCFAIRHFENKFAVETLICLVSEVHKNALGL	3.09
EASNCFAIRHFENKFAVETLICLCKRDVYGVTSR	3.92

Sequence	amyloid nucleation score
EASNCFAIRHFENKFAVETLICYRMPFMADWWLG	inactive
EASNCFAIRHFENKFAVETLICTVPSELFTHSYY	inactive
EASNCFAIRHFENKFAVETLICLSSPVVTNALDK	inactive
EASNCFAIRHFENKFAVETLICTTVRHLGQPMRG	2.73
EASNCFAIRHFENKFAVETLICVWGTVLRFNVRT	0.618
EASNCFAIRHFENKFAVETLICEFSRMPCFRWSG	inactive
EASNCFAIRHFENKFAVETLICHVMPWV	inactive
EASNCFAIRHFENKFAVETLICRLQYAVVYVGRV	inactive
EASNCFAIRHFENKFAVETLICGHMSLIGIWKVK	inactive
EASNCFAIRHFENKFAVETLICHWQLAGTAEENG	inactive
EASNCFAIRHFENKFAVETLICGWVVKTPDLTQG	6.43
EASNCFAIRHFENKFAVETLICQQPWLECAVLVV	inactive
EASNCFAIRHFENKFAVETLICVGGATPAQCGHG	inactive
EASNCFAIRHFENKFAVETLICIWQSARYAKTLR	inactive
EASNCFAIRHFENKFAVETLICVEWRTMLISFSW	inactive
EASNCFAIRHFENKFAVETLICIKS	inactive
EASNCFAIRHFENKFAVETLICRTQVVDCRYAWA	1.88
EASNCFAIRHFENKFAVETLICILTPTLCGSRTW	1.83
EASNCFAIRHFENKFAVETLICRHAVCGIEECPW	inactive
EASNCFAIRHFENKFAVETLICVMVCSWALVVGR	inactive
EASNCFAIRHFENKFAVETLICKVYACGASWRLR	inactive
EASNCFAIRHFENKFAVETLICFVCP	7.43
EASNCFAIRHFENKFAVETLICPMVMCGPDRRIR	inactive
EASNCFAIRHFENKFAVETLICARELFRLCSKW	inactive
EASNCFAIRHFENKFAVETLICALRMKPARDPVA	inactive

same assay, conditions: random library (experiment): 2

Sequence	amyloid nucleation score
EASNCFAIRHFENKFAVETLICFCSCSSHIKSDF	7.81
EASNCFAIRHFENKFAVETLICTYVMYSVLGKLE	inactive
EASNCFAIRHFENKFAVETLICFWFKQ	3.75
EASNCFAIRHFENKFAVETLICQEWNYCSNLIFV	inactive
EASNCFAIRHFENKFAVETLICCSVVKSLHRILL	7.15
EASNCFAIRHFENKFAVETLICIVQHCQVTFLSL	0.0888
EASNCFAIRHFENKFAVETLICLDMVSLTLNWSG	inactive
EASNCFAIRHFENKFAVETLICNFVYSSSICCGL	6.07
EASNCFAIRHFENKFAVETLICLNFSIRSLEWLI	4.4
EASNCFAIRHFENKFAVETLICFNMVFLG	6.62
EASNCFAIRHFENKFAVETLICYCLDIRYPMYFA	inactive
EASNCFAIRHFENKFAVETLICWILYTLRLGSSF	inactive
EASNCFAIRHFENKFAVETLICPTYKRKGKCSIG	inactive
EASNCFAIRHFENKFAVETLICYILLGRKLCWSR	inactive
EASNCFAIRHFENKFAVETLICLGHDS	2.18
EASNCFAIRHFENKFAVETLICDTRASWWTWGSR	4.72
EASNCFAIRHFENKFAVETLICNPFMSYFECCRC	6.08
EASNCFAIRHFENKFAVETLICNVRKSPFSLYLF	inactive
EASNCFAIRHFENKFAVETLICVNTSHRNLTDKR	inactive
EASNCFAIRHFENKFAVETLICFCITLSLDLNYE	inactive
EASNCFAIRHFENKFAVETLICTRSILNVMGFWR	inactive

Sequence	amyloid nucleation score
EASNCFAIRHFENKFAVETLICQALIEKRSGRGV	0.528
EASNCFAIRHFENKFAVETLICVKVCSRDDICYV	0.5
EASNCFAIRHFENKFAVETLICEYRIKFSVSWHF	inactive
EASNCFAIRHFENKFAVETLICPVGSDCFVFRCL	2.64
EASNCFAIRHFENKFAVETLICCGLF	8.51
EASNCFAIRHFENKFAVETLICTINLCTA	6.76
EASNCFAIRHFENKFAVETLICNIARPGT	5.63
EASNCFAIRHFENKFAVETLICLRIMYFSFNVLG	inactive
EASNCFAIRHFENKFAVETLICELSLNRMNKILL	0.357
EASNCFAIRHFENKFAVETLICTCFSAVRGHPSY	9.16
EASNCFAIRHFENKFAVETLICLLRPTNKSVRVC	inactive
EASNCFAIRHFENKFAVETLICGLDCLSCVTFVR	5.92
EASNCFAIRHFENKFAVETLICFDIKCCLGSMWC	9.19
EASNCFAIRHFENKFAVETLICDV	-0.507
EASNCFAIRHFENKFAVETLICYVWNKHATPKRS	inactive
EASNCFAIRHFENKFAVETLICCVSLFIINLYRD	4.84
EASNCFAIRHFENKFAVETLICTWCLYGYVKSMR	inactive
EASNCFAIRHFENKFAVETLICTDDKELICEVMG	inactive
EASNCFAIRHFENKFAVETLICVAWQSWEMRAVS	3.22
EASNCFAIRHFENKFAVETLICTC	0.828

same assay, conditions: random library (experiment): 3

Sequence	amyloid nucleation score
EASNCFAIRHFENKFAVETLICCSRGHGCVMDPG	5.49
EASNCFAIRHFENKFAVETLICCYGDPRSRAALV	inactive
EASNCFAIRHFENKFAVETLICVRRGRIRMRAEK	inactive
EASNCFAIRHFENKFAVETLICGRWVYKPCLVEY	inactive
EASNCFAIRHFENKFAVETLICHMLLSVRMNWVM	inactive
EASNCFAIRHFENKFAVETLICEWQETASVRNGP	0
EASNCFAIRHFENKFAVETLICHIPY	inactive
EASNCFAIRHFENKFAVETLICRVWNLTGVYAGL	inactive
EASNCFAIRHFENKFAVETLICVRLSG	3.21
EASNCFAIRHFENKFAVETLICVRVSMECSKCEL	inactive
EASNCFAIRHFENKFAVETLICIVSTDTCRVRLG	3.81
EASNCFAIRHFENKFAVETLICRHAITRNAKRMS	-0.0526
EASNCFAIRHFENKFAVETLICWMLFNVWRIIPR	inactive
EASNCFAIRHFENKFAVETLICVRRGL	inactive
EASNCFAIRHFENKFAVETLICLCRYTSLFRTGD	inactive
EASNCFAIRHFENKFAVETLICGHALRRSWRLGA	0.0367
EASNCFAIRHFENKFAVETLICCMVYFSQVFR	inactive
EASNCFAIRHFENKFAVETLICRMFFLTNSSCQM	inactive
EASNCFAIRHFENKFAVETLICRASLGRSGCAMV	inactive
EASNCFAIRHFENKFAVETLICNVPCHGW	2.9
EASNCFAIRHFENKFAVETLICGVRQPIGTLFLC	inactive
EASNCFAIRHFENKFAVETLICAMAAYLSLHVMR	inactive
EASNCFAIRHFENKFAVETLICMCVNAREGRPFS	5.99
EASNCFAIRHFENKFAVETLICRMTGHKNLLRID	inactive
EASNCFAIRHFENKFAVETLICIVHGNVNRHRCA	3.54
EASNCFAIRHFENKFAVETLICAWGLLHLATTWR	-0.274
EASNCFAIRHFENKFAVETLICEPCQCRYCLTAN	inactive
EASNCFAIRHFENKFAVETLICMDVCTQRRSLM	2.65
